Measurements published in article PMC4336329 (PLoS ONE, 2015).
Among all 310,000 compounds or so, about 14,000 (4.5%) showed an effect of 50% or more. Effects have a minus sign here. The list shows a part of the results.

Target: human ether-à-go-go-related gene (hERG) potassium channel (human, UniProt Q12809)
Experiment: primary screen, population patch clamp on CHO cells stably expressing hERG
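Also: peak tail current of the secondary pulse compared with the same well before compound.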

human ether-à-go-go-related gene (hERG) potassium channel, sequence (Q12809 whole entry, looked up): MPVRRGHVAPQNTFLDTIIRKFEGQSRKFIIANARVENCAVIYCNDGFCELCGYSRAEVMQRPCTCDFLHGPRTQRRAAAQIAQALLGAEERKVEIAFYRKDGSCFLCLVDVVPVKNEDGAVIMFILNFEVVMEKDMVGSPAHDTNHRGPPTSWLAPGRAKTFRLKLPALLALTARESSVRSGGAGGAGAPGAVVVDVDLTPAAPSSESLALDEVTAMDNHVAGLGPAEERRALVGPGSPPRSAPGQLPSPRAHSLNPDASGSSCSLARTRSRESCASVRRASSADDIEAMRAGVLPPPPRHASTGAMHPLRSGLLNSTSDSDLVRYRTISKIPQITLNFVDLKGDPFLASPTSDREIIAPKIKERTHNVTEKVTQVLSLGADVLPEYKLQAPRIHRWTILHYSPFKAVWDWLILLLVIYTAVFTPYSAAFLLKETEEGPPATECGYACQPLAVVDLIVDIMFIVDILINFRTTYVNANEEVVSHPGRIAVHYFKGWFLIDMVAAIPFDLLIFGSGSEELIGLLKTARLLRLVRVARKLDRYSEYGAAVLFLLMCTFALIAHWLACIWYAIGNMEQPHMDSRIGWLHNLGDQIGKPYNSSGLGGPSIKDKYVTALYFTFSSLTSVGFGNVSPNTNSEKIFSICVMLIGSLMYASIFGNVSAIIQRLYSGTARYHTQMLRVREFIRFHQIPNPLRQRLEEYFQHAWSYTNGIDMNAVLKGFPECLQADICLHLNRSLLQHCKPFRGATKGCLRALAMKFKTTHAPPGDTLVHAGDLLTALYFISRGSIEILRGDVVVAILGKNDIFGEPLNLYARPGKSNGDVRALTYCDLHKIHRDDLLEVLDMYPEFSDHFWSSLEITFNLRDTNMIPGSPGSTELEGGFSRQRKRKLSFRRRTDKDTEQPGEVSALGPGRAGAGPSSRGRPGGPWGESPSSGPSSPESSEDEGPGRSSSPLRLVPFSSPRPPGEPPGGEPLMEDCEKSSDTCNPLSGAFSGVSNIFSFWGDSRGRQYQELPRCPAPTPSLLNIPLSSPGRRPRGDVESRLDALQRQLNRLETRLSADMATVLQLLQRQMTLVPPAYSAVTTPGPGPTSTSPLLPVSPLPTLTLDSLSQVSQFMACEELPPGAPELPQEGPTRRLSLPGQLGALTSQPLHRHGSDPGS

Structure (SMILES)	hERG current change (%, negative = inhibition) at 10uM [%]
CC12CC[C@H]3[C@@H](CCC4(O)C[C@H](O)CCC34/C=N/NC(=O)c3ccc(O)cc3)C1(O)CCC2C1=CC(=O)OC1 (stereo partly shown)	15
Cc1sc(NC(=S)NC(=O)CCc2ccccc2)c(C(N)=O)c1C	21.6
NCCCC[C@@H](C(=O)NCCCCCCCCCCC(=O)N1CCNCC1)n1cc(CCCC(=O)O)nn1	-1.54
COC(=O)c1ccc(CC(C(=O)c2ccccc2)N(C)C)cc1.Cl (stereo not shown)	10.3
O=c1[nH][nH]c(C(F)(F)F)c1C=Nc1ccc(Cl)cc1	0.892
CC(C)(C)n1nc2c(c1NC(=O)Cc1cccs1)CSC2	7.14
COc1ccc(-n2nnnc2SCC(=O)NCCc2ccc(OC)c(OC)c2)cc1	-14.2
Cc1cccc(NC(=O)c2ccccn2)c1C	-6.23
Nc1nonc1-n1nnc(C(=O)N/N=C/c2cccnc2)c1-c1cccs1	-3.54
CCNC(=S)NNC(=O)c1csc(C(C)C)c1	-7.65
O=C(N/N=C/c1ccc2ncccc2c1)c1cccc([N+](=O)[O-])c1	18.5
COC(=O)c1ccc(CSc2ccc3nnc(-c4ccccn4)n3n2)o1	-62.8
CCc1ccc(C(=O)/C=C/c2cnn(C)c2C)s1	-23.3
CCc1sc(C(=O)N2CCN(c3ccc(F)cc3)CC2)cc1C	-16.3
Cn1c(=O)c2c([nH]c(=S)n2CCCc2ccccc2)n(C)c1=O	15.5
O=C1NC(c2cc(Cl)cc([N+](=O)[O-])c2O)Nc2ccccc21 (stereo not shown)	-1.99
CC(C)(Oc1ccc(Cl)cc1)C(=O)O/N=C(\N)c1ccncc1	-13.4
Cc1ccc(C(=O)CC(C(=O)O)P(=O)(c2ccccc2)c2ccccc2)cc1 (stereo not shown)	25.1
Cc1cccc(CN(C)C)c1OC(=O)N(C)C.Cl	-25.9
O=C(CCC1CCCCC1)NCc1ccncc1	-3.77
CCOC(=O)c1ccc(-c2ccc(/C=C(\C#N)C(=O)NCc3cccs3)o2)cc1	18
CCc1nnc(NC(=O)CCc2ccccc2OC)s1	12.7

Structure (SMILES)	hERG current change (%, negative = inhibition) at 10uM [%]
O=C(CSc1nnc(-c2ccc(F)cc2)n1-c1ccccc1)NCCN1C(=O)CSC1=O	-20.6
COc1ccc(Cl)cc1NC(=O)CN(C(=O)c1ccco1)C1CCCCC1	-2.36
O=[N+]([O-])c1ccc(N2CCN(CC3CCCCC3)CC2)cc1	-63
CN1CCN(CC/C=C2/c3ccccc3Sc3ccc(S(=O)(=O)N(C)C)cc32)CC1	-64.7
CCOc1ccc2[nH]c(=O)c(CN(Cc3ccccc3OC)C(=O)c3ccccc3)cc2c1	-14.9
CSc1ccc2c(c1)C(N1CCN(C)CC1)Cc1ccccc1S2.O=C([O-])/C=C\C(=O)[O-] (stereo not shown)	-65.2
CCOC(=O)c1ccc(NC(=O)N2CCc3ccccc3C2)cc1	1.92
Cc1ccc(CC(=O)NCCN2CCOCC2)cc1	19.2
O=C(N/N=C/c1ccc(N2CCOCC2)o1)c1cccc(F)c1	-2.96
CCOC(=O)c1cnc2c(C)cccc2c1NCCCN1CCOCC1	-72.8
COc1ccc(C(C)(C)C)cc1S(=O)(=O)N1CCN(C)CC1	-9.05
CCOC(=O)CCSc1nc(C)c2cc(OC)ccc2n1	-19.7
c1ccc(-c2cn3nc4c(nc3n2)CCCC4)cc1	-18.9
COc1ccc(-c2cc(=O)oc3cc(OC(C)C(=O)NCc4ccccn4)ccc23)cc1 (stereo not shown)	-54.8
CC(C)(C)OC(=O)CNC(=O)c1nc[nH]c1C(=O)NCC(=O)OC(C)(C)C	3.98
O=C1CN(C(=O)CNC(=O)c2ccccc2Cl)c2ccccc2N1	8.79
O=C(CC1(O)C(=O)Nc2ccc(Br)cc21)c1ccc2c(c1)OCO2 (stereo not shown)	-12.3
Cc1c(Cl)cccc1N=c1c([N+](=O)[O-])nn(-c2ccccc2)n1O	-4.05
COc1ccc(OC)c2c(C)cc(C)nc12	1.95
COc1cc(CN(C)C(C)C(=O)Nc2ccc([N+](=O)[O-])cc2Cl)ccc1OC(F)F (stereo not shown)	-4.87
Cc1cc(N/N=C2/CCCc3ccccc32)nc2ccccc12	43.3
O=C(O/N=C1\CCCc2ccccc21)c1cccs1	15.7

Structure (SMILES)	hERG current change (%, negative = inhibition) at 10uM [%]
Br.CC1(C(=O)CSc2n[nH]c(-c3ccccc3Cl)n2)CCC(=O)O1 (stereo not shown)	6.53
CC1(C)Cc2cccc(OCC(=O)N3CCN(c4ccc(F)cc4)CC3)c2O1	-69.5
COc1ccc(S(=O)(=O)N2CCOCC2)cc1N(C)S(=O)(=O)c1ccc(C)cc1	0.666
CCC(=O)Nc1cc(-c2nn(C)c(=O)c3ccccc23)ccc1N1CCCCC1	-22.7
Cc1cc2n(n1)SC(Nc1ccccc1)N2 (stereo not shown)	1.94
Cc1cc(=O)[nH]c(N/N=C/c2c(C)nn(-c3ccc(F)cc3)c2Cl)n1	-3.64
Cc1cc(N/C=C(\C#N)S(=O)(=O)c2ccccc2Cl)nc(C)n1	-9.32
CCn1c(SCC(=O)Nc2nc3ccccc3s2)nnc1-c1ccc(Br)cc1	-0.534
COC(=O)/C=C/c1cc(F)ccc1S(=O)(=O)NC(C)(C)C	-7.41
CCOC(=O)c1[nH]ncc1CN1CCCC(C(=O)c2cccc(OC(C)C)c2)C1 (stereo not shown)	-42.1
CC(C)(NC(=O)N1CCOCC1)c1cccc(C(C)(C)NC(=O)N2CCOCC2)c1	22
O=C(CSc1nnnn1C1CC1)Nc1ccc(S(=O)(=O)N2CCOCC2)cc1	11.2
O=C(Nc1ccc(S(=O)(=O)N2CCCCC2)cc1)c1cnccn1	12.5
COc1cccc(CC2(CO)CCN(S(=O)(=O)c3ccc(OC)cc3OC)CC2)c1	-10.7
CC(C)(C)c1nnc(NC(=O)C2CCN(c3ncccn3)CC2)s1	-0.927
N#C/C(=C\c1ccc(OC(=O)c2ccc(Cl)s2)cc1)c1nc2ccccc2[nH]1	6.95
O=C(O)Cc1sc(NCCc2ccccc2)nc1-c1ccc(F)cc1	3.77
O=C(/C=C/c1ccccc1)N1CCN(C(=O)c2ccco2)CC1	-28.6
CC(OC(=O)CNC(=O)c1ccc(Cl)cc1)C(=O)NC1CCCCC1C (stereo not shown)	7.38
CCOc1ccc(C(CC(=O)O)NC(=O)c2ccco2)cc1OC (stereo not shown)	8.09
CC(C)(C)NC(=O)NC(=O)CSc1nnc2ccccn12	-2.98
O/N=C/c1cn(-c2ccccc2)nc1-c1ccccc1	18.6

Structure (SMILES)	hERG current change (%, negative = inhibition) at 10uM [%]
Cc1cc(C)c2cc(CN(Cc3nnnn3Cc3ccc(F)cc3)C3CCCC3)c(=O)[nH]c2c1	-4.26
CN1CCN(C(=O)CCN2C(=O)/C(=C\c3ccc(Cl)cc3Cl)SC2=S)CC1	11.8
Cc1onc(-c2ccccc2Cl)c1C(=O)Nc1ccc(N2CCOCC2)cc1	-11.8
Cc1ccc(NC(=O)CCn2cnc3ccccc3c2=O)cc1	15
Cc1cccc(N2CCN(C(=O)COCc3cc(-c4ccc5c(c4)OCO5)on3)CC2)c1C	-3.21
O=c1[nH]c(/C=C/c2ccccc2Cl)nc2ccccc12	10
C=CCNC(=S)NNC(=O)CCC(O)COCCC(C)C (stereo not shown)	-0.312
CCOC(=O)c1ccccc1NC(=O)CCNC(=O)Cn1cnc2ccccc2c1=O	3.37
COc1ccc(NC(=O)C(C)N2c3cccc4cccc(c34)S2(=O)=O)cc1 (stereo not shown)	-8.6
O=C1/C(=C\c2ccc(Cl)cc2Cl)N2CCC1CC2	5.03
O=C(NCCOc1cccnc1)C1CCC(=O)N(Cc2ccccc2F)C1 (stereo not shown)	11.2
CCN1C(=O)[C@@H]2Cc3c([nH]c4ccccc34)C(c3cc(OC)c(OC)c(OC)c3)N2C1=S (stereo partly shown)	-7.32
COc1ccccc1Oc1c(C)oc2c(CN3CCOCC3)c(O)ccc2c1=O	13.4
CCOC(=O)C1CCCN(CC(O)COc2ccc(OC)cc2C(C)(C)C)C1 (stereo not shown)	-61.4
CCCCNC(=O)Nc1nnc(-c2ccccc2)o1	-14.5
C[C@H](NC(=O)C1CCN(S(=O)(=O)c2ccccc2)CC1)C(=O)NCc1ccccn1	20.6
CN(Cc1ccco1)S(=O)(=O)c1cc(F)ccc1CN1C(=O)c2cccnc2C1=O	-47.6
O=C(O)C1CCCCC1C(=O)NCc1ccc2c(c1)OCO2 (stereo not shown)	1.76
CCc1c(C(=O)N/N=C/c2ccsc2)csc1C	6.13
CCOc1ccc2[nH]c3c(NCCO)ncnc3c2c1	23.1
COc1ccc(NC(=S)N2CCN(C/C=C/c3ccccc3)CC2)c(OC)c1	-64.2
COc1ccccc1OCCn1c(C)c(C=O)c2ccccc21	-2.11
